Reference: patent publication US20080075796A1, “Compositions and Methods for Controlling Insects” (TyraTech, Inc., priority 2003, published 2008)

How the values were obtained:
[1] = system: farm ants; experiment: Repellent effect on farm ants (treated filter paper); type: in vivo
Method: (§1) Adult insect are randomly selected for testing the repellent effect of compositions and are not individually marked. About 5 insects per replicate are used. About 3 replicates are used for each treatment. Untreated control tests are included with only solvent (acetone) application to an equal sized population/replications, held under identical conditions. A filter paper (about 80 cm^2) is treated with the composition (about 100 mg in […] acetone). After about 3 min of air drying, the filter paper is placed in a dish and repellency against insects is performed. Insects are released to the dish, one insect at a time at the far end of the dish. Using one or more stopwatches, the time spent on either the filter paper or the untreated surface of the dish is recorded up to about 300 seconds. Repellency ratio (RR) is calculated as follows: RR=[(time on control surface−time on treated surface)/total time of test].
The repellent effect of various plant essential oils is tested by treating a filter paper with the test oils. After about five minutes at room temperature, the paper is placed in a dish and ants are introduced one at a time. […] Oils are tested alone. Additionally, oils are mixed to form compositions, which are then tested.

[2] = system: Carpenter ants; experiment: Repellent effect on carpenter ants (treated filter paper); type: in vivo
Method: as §1, with “test]. If RR>0 then the composition is considered to have a repellant effect, that is to say, an effect, wherein more insects are repelled away from treated surface than the control surface; if RR<0 then the composition is considered not to have a repellant effect.” for “test].”
The repellent effect of various plant essential oils is tested by treating a filter paper with the test oils. After about five minutes at room temperature, the paper is placed in a dish and ants are introduced one at a time. The repellency is determined as described above, in Example 14. Oils are tested alone. Additionally, oils are mixed to form compositions, which are then tested.

[3] = Day 0, time on treated surface of up to about 300 seconds

## C=CCc1ccc(O)c(OC)c1 [eugenol]
[1]; Day 0
  Repellency %, R %: 48.8%
[1]; [3]
  sec. on T surface: 76.8 s
[1]; Day 1
  Repellency %, R %: 07.3%
  sec. on T surface: 139.0 s

## CC(C)=CCC/C(C)=C/CO [geraniol]
[2]; Day 0, time on treated surface of up to about 300 seconds, listed as Geraniol
  sec. on T surface: 69.0 s
[2]; Day 1
  Repellency %, R %: 14.0%
  sec. on T surface: 129.0 s

## O=CCc1ccccc1 [phenyl acetaldehyde]
[1]; Day 0
  Repellency %, R %: 03.5%
[1]; [3]
  sec. on T surface: 144.8 s

## CC(=O)OCc1ccc2c(c1)OCO2 [piperonyl acetate]
[1]; Day 0
  Repellency %, R %: 65.1%
[1]; [3]
  sec. on T surface: 52.4 s
[1]; Day 1
  Repellency %, R %: 28.9%
  sec. on T surface: 106.6 s
